Laboratory results published in the supplement of paper PMC11417369.
± gives the standard deviation of the averaged measurements. The list shows a part of the results.

What follows are sequences tested on PfAP2-EXP AP2 domain (GST-tagged) (assay: gcPBM binding intensity (ln(normalized median fluorescence intensity)); higher = stronger DNA binding).
Outline: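 The binding buffer was 1× PBS containing 1% milk, 0.2 mg/ml BSA, 0.5% salmon testes DNA and 0.03% Triton X-100. In it, GST-tagged P. falciparum DNA-binding domains expressed in E. coli were applied for 1 h to an Agilent 4 × 180k array of primer-extended double-stranded 36-bp intergenic genomic probes plus negative controls. Binding intensity, read with Alexa488 anti-GST antibody and a 488 nm scan, is the highest Masliner-normalised natural-log median intensity across replicate spots of either probe orientation.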

Sequence	gcPBM binding intensity (ln)
ATTATTAATAATTGTGTGCACAAATATTTATATGCT	8.86 ± 0.092
ATATTGTATTATCTTTATGTACCAAAAAAAAAAAAA [CACACA_negctrl_site1036]	8.36 ± 0.52
ATGAACATACAATATACACACATATAGATTTATATT [CACACA_site6524]	8.48 ± 0.52
TCATTATTAATATGTAGTACATTATATGATATGTAT [XGTACX_site8978]	8.45 ± 0.24
TTCTTTTTAAATTACACACACATATATATCTGTATA [CACACA_site5863]	8.78 ± 0.44
TAAAGGATTTTCGAAGCATGCCACCTGTGACATACT [TGCATGCA_site130]	8.32 ± 0.49
TTTATACAATTAGACACACACAAAAAGTATATATAT [CACACA_site1082]	8.76 ± 0.44
ATGGGTATATTTCCACGTACAAAAAATCCGAATTGC [XGTACX_site1490]	8.6 ± 0.38
ATATAATTACATTGATGTACACGAAATGATTAACAT [XGTACX_site5183]	8.67 ± 0.34
CAAATACCCGGACACACACACACAAAAAAAAAAAAA [CACACA_site4441]	8.38 ± 0.49
CATTCAAAGAAAAACTGTACGTGTAGCAAACGTCAT [XGTACX_site2576]	8.42 ± 0.73
GTATATATTAAAAAAAAAAAAAAAAAATTAAAATTA [CACACA_negctrl_site572]	7.95 ± 0.45
AAAAAAAAAATTCATTGTACATATATATATATATAT [XGTACX_site8346]	10.2 ± 0.22
TAGACTGGACATTAATGTACATAAATATATATGTAT [XGTACX_site7726]	8.71 ± 0.43
TATAAGAAAAATAACACACACATAAACATATATACA [CACACA_site2785]	8.98 ± 0.41
GGAATATTAATAAGAGTGCATTTTGTATTCAATATG	8.61 ± 0.014
TGGTTATTTATCTTTATTATAAATATTTACAAATAA [CACACA_negctrl_site1773]	8.4 ± 0.35
ATATATATATATATATGTACTTATTTATATATTTAT [XGTACX_site7811]	10.1 ± 0.25
ATAAGAAGAAGAAAAACACACATATGTAGATATATA [CACACA_site7469]	9 ± 0.58
AAATAATATTTTACATGTACATAATAATTATTGGAT [XGTACX_site2783]	8.66 ± 0.28
ATGCTTCCTTAGGAATGTACACACATATATAATATG [XGTACX_site873]	8.69 ± 0.35
ATAAAAATAAAAAACTGTACATACAAGATGTTACAG [XGTACX_site6690]	8.29 ± 0.23

Sequence	gcPBM binding intensity (ln)
TAAATATTTAAATATTGTACTAGGTATAATTGAATA [XGTACX_site3604]	8.38 ± 0.47
TTATTGTACTTGCTCGCATGCAATAAAAATATATTA [TGCATGCA_site580]	9.38 ± 0.23
GGCATGACTATCTGCACACATAAAAATAAGAAATAC [CACACA_site841]	8.87 ± 0.4
GATTTATACAAATATGTACACACTAATTATATATTA [CACACA_site8045]	8.73 ± 0.28
ATAAACAGAAAAAAAAAAAAAAAAAAAAAAAAAAAA [CACACA_negctrl_site143]	7.98 ± 0.4
TTTTTTTTCTCACAAAAAATAATTAACAAAAAGGAA [XGTACX_negctrl_site154]	8.55 ± 0.27
TTTATATGGATTTTTTTTTAATATTTCTTTTAATTT [TGCATGCA_negctrl_site361]	8.21 ± 0.4
ATAAAAAAAAAAAATACACACATATATTTATTTATA [CACACA_site6903]	7.96 ± 0.42
ATATGCTATTTACTAGTGCAAAATATTTAAAATATG [GTGCAC_site9517]	8.76 ± 0.16
TAAAAAAAAAAAAAAAGTACAAAAAAAATATTTTTT [XGTACX_site7941]	8.48 ± 0.4
GTTGCACAATGTTACACACACAATATAGATCGTTAA [CACACA_site6717]	8.62 ± 0.42
TTAATATAAGCAAATACACACACACCGATATATATA [CACACA_site9269]	8.91 ± 0.36
TATCATATTTTTATATGTACATAACATAAAAAAAAA [XGTACX_site2152]	8.29 ± 0.43
AACAGACAAAGACACACACACATACATACATACATA [CACACA_site6351]	8.72 ± 0.38
TGATTTGTGCCGATTTGTACACATTTATATATATAT [XGTACX_site2154]	9.58 ± 0.17
ATTTTTTCATATTCTACACACGTGAACAAATGAGTC [CACACA_site5635]	8.74 ± 0.42
TACATACATACATACACACACATATATATATATATA [CACACA_site1944]	10.2 ± 0.29
TCACATATATATTAATGTACATATATTTTTTATGTA [XGTACX_site5125]	8.41 ± 0.35
GATATATCCTATGTTATTTTTATGGTGTAATTTAGT [XGTACX_negctrl_site112]	8.81 ± 0.29
CAATGTTAACATATTACACACATATGTATATATAAT [CACACA_site8878]	8.58 ± 0.55
GACAACTCTTTTCATACACACAAAAAAAAAAAAATA [CACACA_site2361]	8.33 ± 0.52
AGAAAGAAAATATATACACACAAAAAAAAATATATA [CACACA_site1412]	8.7 ± 0.47
